One molecule from patent publication US20250170257A1 (NANOLATTIX BIOTECHNOLOGY, published 2025) can be followed below.

This test deals with tissue factor on the surface of tumor cells (human, UniProt P13726 33-295). The test can be described thus: cell-based or functional assay.
UniProt P13726, sequence (P13726 33-295): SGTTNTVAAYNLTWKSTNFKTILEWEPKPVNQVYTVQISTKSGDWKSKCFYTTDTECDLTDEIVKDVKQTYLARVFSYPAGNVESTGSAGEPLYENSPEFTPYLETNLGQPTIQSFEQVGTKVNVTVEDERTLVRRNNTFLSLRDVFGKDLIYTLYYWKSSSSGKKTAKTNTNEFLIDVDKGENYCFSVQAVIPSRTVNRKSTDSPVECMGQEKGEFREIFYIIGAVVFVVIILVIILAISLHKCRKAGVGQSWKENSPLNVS

B1: antibody MAb01-ADC drug (MAb01 coupled to Mc-VC-PAB-MMAE) (other)
heavy: QIQLVQSGPELVKPGASVQVSCKTSGYSFTDYNVYWVRQSPAKGIEWIGYIDPYNGLTIYEQNFRGKGTLSLDHSTSTAYMELNSLRYEDTAVYFCARDVTTALDFWGQGTSVTVSSEF[… human IgG1 constant region …]
light: DIQMTQSPASISASIGERVTITCLASQTIDTWLAWFLQKPGRSPNLLIYAATNLADGVPYRFSASGSGNDFSLTISSLNPEDVATYYCQQVYSSPFTFGQGNKLEIRRTVAAPSVFIFPPSDEQLKSGTASVVCLLNNFYPREAKVQWKVDNALQSGNSQESVTEQDSKDSTYSLSSTLTLSKADYEKHKVYACEVTHQGLSSPVTKSFNRGEC
modifications: Mc-VC-PAB-MMAE coupled after TCEP reduction, DAR 4.15 (sites not given)
With B1, the “IC50 of cell survival (CCK-8), Cervical Cancer Cell Hela” value was found to be 43.6 pM; the “IC50 of cell survival (CCK-8), Colon cancer cell SW620” value is 463 pM; the “IC50 of cell survival (CCK-8), In-situ adenocarcinoma cells BXPC” value was 30.8 pM; the “IC50 of cell survival (CCK-8), Non-small cell lung cancer A549” value was 451 pM. Moreover, the “IC50 of cell survival (CCK-8), Ovarian cancer cell SK-OV-3” value stood at 13.6 pM.
